Experimental data from PubChem BioAssay AID1346428 (National Center for Advancing Translational Sciences (NCATS), 2018).
Out of some 48,000 compounds screened, about 1,200 (2.5%) were called active. Inconclusive results (about 2%) are left out.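 The calls were made as follows: active = activation of at least 60% and not above a set upper limit (about 1 call in 100 departs from these limits); inconclusive = activation of 40% to 60%, or above that upper limit; inactive = activation under 40%.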 The list shows a part of the results.
Also: 0% is about no effect.

What follows are compounds tested against Probable G-protein coupled receptor 32 (Homo sapiens) (UniProt O75388) (assay: qHTS for Agonists of Human Resolvin D1 Receptor DRV1). Conditions: CHO-K1 GPR32 beta-arrestin PathHunter luminescence, 90 min; at 76.9 µM; active compounds read high; zero percent set by DMSO-only wells.
Chain of UniProt O75388 (O75388 whole entry, looked up, the tested form may be a part): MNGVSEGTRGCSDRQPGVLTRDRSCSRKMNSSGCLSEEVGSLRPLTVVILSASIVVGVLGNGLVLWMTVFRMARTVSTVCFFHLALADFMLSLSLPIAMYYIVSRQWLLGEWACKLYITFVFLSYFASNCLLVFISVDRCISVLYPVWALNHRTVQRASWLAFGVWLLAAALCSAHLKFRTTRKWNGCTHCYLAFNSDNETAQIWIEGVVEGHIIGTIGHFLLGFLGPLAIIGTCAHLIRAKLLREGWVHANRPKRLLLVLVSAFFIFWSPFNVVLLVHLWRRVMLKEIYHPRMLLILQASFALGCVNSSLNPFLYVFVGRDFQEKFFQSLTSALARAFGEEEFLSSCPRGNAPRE
Method in brief: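 Agonism was scored by beta-Gal fragment complementation (chemiluminescent read, 1 h detection at ambient temperature) reporting beta-arrestin binding to GPR32 in engineered CHO-K1 cells. Compound treatment lasted 90 min at 37 C, normalized to a DMSO basal control.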
With `CCCCNC(=O)c1cnc2c(-c3ccc(OCC)c(OCC)c3)c(C)nn2c1-c1ccccc1` the activation was inactive: 2.21%. For `CCc1ccc2nc(N3CCC(C(=O)NCCC(C)C)CC3)sc2c1`, the activation was inactive: -2.82%. For `Cc1ccc(C)c(NC(=O)Cn2c(=O)n(CCCS(=O)(=O)C3CCCCC3)c(=O)c3ccccc32)c1`, the activation was inactive: -2.63%. With `O=C(Cn1c(-c2cccs2)cc2cc(Cl)ccc21)N1CCCCC1` the activation was inactive: -11.1%. With `Cc1ccc(NC(=O)C2CCCN(S(=O)(=O)c3ccc4c(c3)CCCC(=O)N4)C2)cc1N(C)C` (stereo not given) the activation was inactive: 18.5%. With `COc1ccc(Cl)cc1C(=O)NCC(c1ccc(N(C)C)cc1)N1CCCC1` (stereo not given) the activation was inactive: -3.9%. `CN1CCN(c2c(F)cc3c(=O)c(C(=O)O)cn(CCF)c3c2F)CC1` was tested, and the activation was inactive: -5.48%. `Cc1ccc(-c2ccc(CCC(=O)O)n2-c2ccc(C)c(Cl)c2)cc1` was tested, and the activation was inactive: 3.24%. For `CCOc1cc(C(=O)Nc2ccc(-c3nnc4n3CCCCC4)cc2)cc(OCC)c1OCC`, the activation was inactive: 49.6%. In the case of `Fc1ccc(-c2nnn3c2nc(NCc2ccccc2)c2ccccc23)cc1`, the activation is reported as inactive: -8.33%. With `Cc1ccc2nc(/C(C#N)=C/c3ccc(-c4ccc(C(=O)OC(C)C)cc4)o3)[nH]c2c1` the activation was inactive: -12.4%. With `Cc1ccc2c(c1)c1c(c(=O)n(-c3ccccc3)c(=O)n1CC(=O)c1ccc(Cl)cc1)n2C` the activation was inactive: -0.358%. `O=C1CN(C(=O)c2c(F)cccc2Cl)C(c2ccc(F)cc2)c2cc(Br)ccc2N1` (stereo not given) was tested, and the activation was inactive: -31.1%. `Cn1c(=O)n(C)c2cc(N3CCOCC3)c(NS(=O)(=O)c3ccc(F)cc3)cc21` was tested, and the activation was inactive: -25.2%. For `CCOc1ccc(NC(=O)CSc2nccn2C2CCCC2)cc1`, the activation was inactive: -18.4%. With `CN(C(=O)CSc1nc2ccc(NC(=O)c3cccs3)cc2s1)c1ccccc1` the activation was inactive: 13.7%. In the case of `COc1ccc(-n2c(=O)c3c4c(sc3n(CC(=O)C(C)(C)C)c2=O)CCCC4)c(OC)c1`, the activation is reported as inactive: -3.91%. In the case of `CCc1ccc(CNC(=O)C2CCN(C(=O)c3ccc(-n4c(C)cc5ccccc54)s3)CC2)cc1`, the activation is reported as inactive: -13.9%. `COC(=O)c1cccc(CN2C(=O)SC(Nc3ccccc3C)C2=O)c1` (stereo not given) was tested, and the activation was inactive: -84.8%. In the case of `Cc1ccc(CN2C(=O)CN(C3CCCCCC3)C(=O)C2c2ccc(F)cc2)cc1` (stereo not given), the activation is reported as inactive: -12.6%. In the case of `CC(=O)c1ccc(NC(=O)CSc2nc3c(=O)n(C)c(=O)n(C)c3n2C)cc1`, the activation is reported as inactive: -2.9%. `CCCSc1nnc(NC(=O)Cc2coc3cc(C)ccc23)s1` was tested, and the activation was inactive: -7.78%. For `CNC(=O)c1cccc(-n2c(C)nc3cccnc32)c1C`, the activation was inactive: -1.99%. With `O=c1c2cccnc2n(Cc2ccc(Cl)cc2)c(=O)n1Cc1ccc(F)cc1` the activation was inactive: -7.92%. With `Cc1cc(N2CCN(C)CC2)nc2ccc(NC(=O)c3ccccc3F)cc12` the activation was inactive: -1.01%. For `CC(=O)Nc1ccc(S(=O)(=O)N2CCN(c3ccc(C)c(C)c3)CC2)cc1`, the activation was inactive: -0.419%. For `Cc1cccc(NC(=O)Nc2ccc(C)c(C)c2)n1`, the activation was inactive: 11.1%. `O=C(CSc1nnc2[nH]c(=O)cc(-c3ccccc3)n12)Nc1ccccc1C(F)(F)F` was tested, and the activation was inactive: 8.97%. With `Cc1cc(OCC(=O)Nc2ccc(C(=O)OC3CCCCC3)cc2)ccc1Cl` the activation was inactive: 5.39%. In the case of `CCOc1ccc(NC(=O)C(=O)NCCc2sc(-c3ccc(C)cc3)nc2C)cc1`, the activation is reported as inactive: 7.79%. `O=C(c1c[nH]c2ccc(S(=O)(=O)Nc3ccccc3F)cc2c1=O)N1CCCCCC1` was tested, and the activation was inactive: -6.38%. With `O=C(/C=C/c1ccc(O)c(O)c1)OCCc1ccccc1` the activation was inactive: 2.86%. In the case of `CNC(=O)C1CCC(Cn2c(=O)c3sccc3n(CC(=O)Nc3cc(C)cc(C)c3)c2=O)CC1` (stereo not given), the activation is reported as inactive: 2.86%. In the case of `COc1cccc(NC(=O)Cn2nc(-c3ccncc3)ccc2=O)c1`, the activation is reported as inactive: -18.2%. For `CC1CCCCN1CCCNC(=O)c1sc2ncccc2c1-n1cccc1` (stereo not given), the activation was inactive: -14.8%. For `CCC(C)n1c(=N)c(C(=O)NCc2ccco2)cc2c(=O)n3cc(C)ccc3nc21` (stereo not given), the activation was inactive: 8.05%. In the case of `COc1ccc(OC)c(NC(=O)C2CCN(S(=O)(=O)c3c(C)noc3/C=C/c3ccc(C)cc3)CC2)c1`, the activation is reported as inactive: 5.74%. `COC(=O)c1sc(N2C(=O)c3oc4cc(C)c(C)cc4c(=O)c3C2c2ccccc2F)nc1C` (stereo not given) was tested, and the activation was inactive: 2.99%. With `CCCN1C(=O)c2[nH]nc(-c3ccc(OC)cc3)c2C1c1ccccn1` (stereo not given) the activation was inactive: -1.5%. In the case of `Cc1cccc(Cn2c(CN3CCC(C(=O)NCc4ccccc4Cl)CC3)cc3ccccc32)c1`, the activation is reported as inactive: -55.7%. With `O=S(=O)(NCc1csc(-c2ccccc2)n1)c1ccccc1` the activation was inactive: -4.98%. For `COc1ccc(Cn2c(CNS(=O)(=O)c3ccc(Cl)s3)nc3cccnc32)cc1`, the activation was inactive: -22.1%. In the case of `Cc1ccc(C(=O)Nc2cc(-c3nc4cc(Cl)ccc4o3)ccc2C)c(C)c1`, the activation is reported as inactive: 27.2%. `O=C(c1cnn(-c2ccc(F)cc2)c1-n1cccc1)N1CCN(c2cccc(Cl)c2)CC1` was tested, and the activation was inactive: 11.5%. In the case of `CCOCCCNC(=O)C1CCN(c2nc3ccc(Cl)cc3[nH]2)CC1`, the activation is reported as inactive: -2.91%. In the case of `COc1ccc(CN2CCc3nc(N4CCN(c5ccc(F)cc5)CC4)ncc3C2)c(OC)c1OC`, the activation is reported as inactive: -5.67%. In the case of `CCc1cccc(C)c1NC(=O)c1cc2ccccc2o1`, the activation is reported as inactive: -7.44%. `Cn1cc(S(=O)(=O)c2ccccc2)c(=O)c2cc(F)c(N3CCCC3)cc21` was tested, and the activation was inactive: -3.93%. For `O=C(NCc1ccccc1)c1ccc(CSc2nc3cccnc3n2Cc2ccccc2)cc1`, the activation was inactive: -3.37%. With `COc1ccc(CCNC(=O)c2cc3c(=O)n4ccccc4nc3n2C)cc1` the activation was inactive: -4.08%. For `CC(=O)OCC(CCn1cnc2cnc(N)nc21)COC(C)=O`, the activation was inactive: 0.199%. `NNc1nncc2ccccc12` was tested, and the activation was inactive: 27.1%. In the case of `COc1ccc(NC(=O)Cn2cc(S(=O)(=O)c3ccccc3)c(=O)c3cc(C)ccc32)cc1Cl`, the activation is reported as inactive: -1.79%. In the case of `CCC(Cn1nnc2ccccc2c1=O)NC(=O)Nc1cc(OC)cc(OC)c1` (stereo not given), the activation is reported as inactive: -30.4%. In the case of `Cc1cc2c(cc3c(SCc4cccc(Cl)c4)nnc(C)n32)o1`, the activation is reported as inactive: -33.1%. With `CCC(=O)N1CCc2cc(Br)cc(S(=O)(=O)N3CCC(C(=O)Nc4cccc(C)c4)CC3)c21` the activation was inactive: -5.94%. In the case of `COc1cccc(N2CCN(C(=O)c3ccc4c(Cl)c5c(nc4c3)CCCC5)CC2)c1`, the activation is reported as inactive: -14.7%. For `C[C@H](CN1CCCC1)C(=O)c1ccc(C(F)(F)F)cc1`, the activation was inactive: 6.94%. `CCc1ccc(NC(=O)CSC2=Nc3ccccc3C3=NC(CC(=O)NCc4cccs4)C(=O)N23)cc1` (stereo not given) was tested, and the activation was inactive: -9.37%. For `CCN(CC)C(=O)c1c(-c2ccccc2)c(-c2ccccc2)nn(C)c1=O`, the activation was inactive: -17.9%. `CC(=O)N1CCCc2cc(S(=O)(=O)N3CCC(C(=O)Nc4cccc(Cl)c4C)CC3)ccc21` was tested, and the activation was inactive: -2.39%. For `COc1ccc(N2CCN(C(=O)CCn3nc(C)c(S(=O)(=O)N4CCCC4)c3C)CC2)cc1`, the activation was inactive: -14%. `O=C(CSc1nnc(-c2cccs2)o1)Oc1ccccc1` was tested, and the activation was inactive: 1.58%. In the case of `CCN(CC)CCCNC(=O)c1ccc(-c2nc(CN3CCc4ccccc43)c(C)o2)cc1`, the activation is reported as active: 95.3%. For `O=C(CSc1nnc(-c2ccccc2)o1)c1cccc([N+](=O)[O-])c1`, the activation was inactive: 23.2%. For `O=C(Cn1ncc2c3ccccc3n(Cc3ccc(Cl)cc3)c2c1=O)NCc1ccccn1`, the activation was inactive: 4.07%. For `NC(=O)c1ccccc1NC(=O)c1ccc(-c2ccc(Br)cc2)o1`, the activation was inactive: 5.01%. With `COC(=O)c1cc(S(=O)(=O)N2CCN(c3cccc(C)c3)C(C)C2)cn1C` (stereo not given) the activation was inactive: -22.7%. In the case of `CCOc1ccc(C(=O)Nc2ccc3nc(SCCOc4ccccc4)sc3c2)cc1`, the activation is reported as inactive: 1.37%. For `CCc1ccc(-n2cnc3cc(C(=O)NCc4ccc(C)cc4)ccc32)cc1`, the activation was inactive: -6.44%. In the case of `CCN(CC)CCCNC(=O)c1ccc2c(=O)n(CCc3ccccc3)c(=O)[nH]c2c1`, the activation is reported as inactive: -7.45%. With `CC(=O)c1cccc(NC(=O)Cn2nc(C)n3cccc3c2=O)c1` the activation was inactive: -7.87%. With `CCOC(=O)c1c(C)[nH]c(CCC(=O)NCc2ccc(CC)cc2)c1C` the activation was inactive: -13.3%. In the case of `Cc1ccc(S(=O)(=O)Nc2cc3c(cc2NCc2ccccc2)n(C)c(=O)n3C)c(C)c1`, the activation is reported as inactive: 19.1%. `Fc1cccc(-n2ncc3c2ncn2nc(COc4ccc(Cl)cc4)nc32)c1` was tested, and the activation was inactive: 0.854%. `CCCC1=Nc2cc(C(=O)NCc3ccc(OC)cc3)ccc2Sc2ccc(C)cc21` was tested, and the activation was inactive: -3.55%. In the case of `O=C(CSCc1cccc(F)c1)NCc1ccccc1`, the activation is reported as inactive: -5.99%. For `O=C(CCc1nc(CN2CCN(S(=O)(=O)c3ccc(Cl)cc3)CC2)no1)N1CCCCC1`, the activation was inactive: -3.35%. `Cc1cccc(Cn2c(SCc3ccc(C(=O)NCCc4ccccc4)cc3)nc3ccncc32)c1` was tested, and the activation was inactive: -1.32%. In the case of `CCc1cccc(C)c1NC(=O)Cn1ccn(-c2cccc(OC)c2)c(=O)c1=O`, the activation is reported as inactive: -5.47%. In the case of `COc1ccc(-c2cc3nc(C)c(CCC(=O)Nc4ccccc4C(C)=O)c(C)n3n2)c(OC)c1`, the activation is reported as inactive: 29.1%. For `COc1ccc(-n2c(=O)c3c(c4cc(OC)ccc4n3C)n(Cc3cccc(OC)c3)c2=O)cc1`, the activation was inactive: -3.9%. For `O=C(CCC1N=C2c3ccccc3N=C(SCc3ccc(F)cc3)N2C1=O)NCc1ccc(F)cc1` (stereo not given), the activation was inactive: 2.75%. For `C1CCN2C[C@@H]3C[C@@H](CN4CCCC[C@@H]34)[C@H]2C1`, the activation was inactive: -9.08%. For `CCOc1ccc(-c2nc(CSCC(=O)N3CCN(c4ccc(F)cc4)CC3)c(C)o2)cc1`, the activation was inactive: -14.1%.
